The BET-seq Pho4 binding data (Le et al. 2018)
The other results are listed elsewhere or left out. These are noisy estimates, calculated here from bound and input reads.

Target: T1, Pho4 (S. cerevisiae) (UniProt P07270)
T1 sequence: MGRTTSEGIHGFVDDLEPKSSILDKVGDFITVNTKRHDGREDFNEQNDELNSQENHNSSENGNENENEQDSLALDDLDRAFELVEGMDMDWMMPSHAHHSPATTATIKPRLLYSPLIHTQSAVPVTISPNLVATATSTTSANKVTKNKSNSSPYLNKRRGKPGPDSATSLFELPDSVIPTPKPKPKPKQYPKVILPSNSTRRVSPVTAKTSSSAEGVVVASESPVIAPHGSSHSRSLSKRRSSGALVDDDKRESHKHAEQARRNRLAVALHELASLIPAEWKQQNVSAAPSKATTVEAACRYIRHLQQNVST
Assay: relative binding free energy (BET-seq); higher = weaker binding
Conditions: reference: library average

| Sequence | relative binding free energy [kcal/mol] |
| --- | --- |
| AGGTTCACGTGGCCGG | 0.3 |
| GGTATCACGTGATTAG | 0.29 |
| TTGTGCACGTGGAGGT | 0.06 |
| GCATACACGTGGGTGG | -0.04 |
| ATATACACGTGCAGGG | -0.01 |
| GTGGTCACGTGTTCGG | 0.29 |
| GCGTCCACGTGGTTTT | 0.23 |
| TGTGGCACGTGTCTGT | -0.04 |
| GGGATCACGTGTGGCT | 0.15 |
| AGAGGCACGTGTATAG | -0.03 |
| CGTCGCACGTGGGCGT | -0.24 |
| AACGGCACGTGGTGTG | -0.19 |
| CATTTCACGTGATTAG | 0.25 |
| CATGACACGTGTAGTG | 0.02 |
| CTTAGCACGTGCTGTT | -0.12 |
| GTAGACACGTGGTTGT | 0 |
| TGTCGCACGTGCGGTA | -0.18 |
| AATTTCACGTGGGTGG | 0.31 |
| GTGTCCACGTGTTAGT | 0.12 |
| TGGGTCACGTGGAAGA | 0.05 |
| TGAAGCACGTGCGTTG | -0.08 |

| Sequence | relative binding free energy [kcal/mol] |
| --- | --- |
| GGTGTCACGTGGAAGT | 0.15 |
| TTGGCCACGTGATGAT | 0.22 |
| ACTGTCACGTGGGGTT | -0.21 |
| GGTAGCACGTGGAGAT | -0.08 |
| GGGTTCACGTGGTACG | 0.36 |
| TACGGCACGTGAGGAG | 0.02 |
| TTTTACACGTGGGTTC | 0.08 |
| GTTGACACGTGATGCT | 0.08 |
| AGTTCCACGTGGTGCA | 0.12 |
| AATGTCACGTGGGCTG | -0.1 |
| GAGATCACGTGGTGGA | 0.21 |
| TGTAACACGTGCGGGC | -0.07 |
| TGTGTCACGTGAAAAG | 0.27 |
| CTGAGCACGTGGAGTT | 0.01 |
| GGAGACACGTGAGGGC | 0.17 |
| CAATACACGTGGTGGG | -0.02 |
| ATCGGCACGTGATGTG | 0.03 |
| TGTGTCACGTGTAAGG | 0.2 |
| TATAGCACGTGTTAAA | 0.01 |
| TGGGGCACGTGGGGCC | -0.22 |
| TTTGTCACGTGTGCCA | -0.01 |

| Sequence | relative binding free energy [kcal/mol] |
| --- | --- |
| ATTATCACGTGATCTG | 0.35 |
| AGCTTCACGTGTTTAG | 0.24 |
| AGTTGCACGTGAGTGT | 0.24 |
| GGTTTCACGTGTGTGC | 0.31 |
| TTTAGCACGTGAGTAC | 0.07 |
| TGAGGCACGTGGGTGA | -0.23 |
| GGGCGCACGTGTTGTT | -0.06 |
| GTAGACACGTGGGAGG | -0.01 |
| TACTACACGTGGTGGG | 0.11 |
| TAAATCACGTGTGGCT | 0.08 |
| AGTGACACGTGATAGA | 0.17 |
| CATGGCACGTGGGATA | -0.24 |
| ATGATCACGTGTTTGA | 0.12 |
| TGTTCCACGTGATAGA | 0.22 |
| AAGTTCACGTGTTCAT | 0.36 |
| GTGTTCACGTGTATTG | 0.23 |
| TGTGGCACGTGGTCCA | -0.19 |
| TTATACACGTGGCGTA | -0.08 |
| AATTCCACGTGAGGGG | 0.38 |
| AGTTGCACGTGAATTT | 0.18 |
| GGGAACACGTGGTAGA | 0.12 |
